Several values for one entry are separate records, joined by “and”; a condition that tells them apart may be missing. Equal values may be shown once. Hit rate of the full screen: of about 2,000 compounds, about 45 (2%) were called active.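 Rule for the calls: active = inhibition above the mean of all tested compounds plus 3 SD (cut at about 49% in these data); inactive = the rest.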 This is one part of the list.
target: Perilipin-5 (Homo sapiens) + 1-acylglycerol-3-phosphate O-acyltransferase ABHD5 (Homo sapiens) (UniProt Q00G26+Q8WTS1); test: ABHD5-PLIN5 interaction inhibitors, pilot screen, cell lysate, split luciferase complementation, luminescence, NIH validation set (AID 493035);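 note: 0% = DMSO only wells while the 100% control is not stated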; conditions: split G. princeps luciferase complementation, lysates, 4 h; at 7.9 µM, hits give high values
Chain of UniProt Q00G26 (Q00G26 whole entry, looked up): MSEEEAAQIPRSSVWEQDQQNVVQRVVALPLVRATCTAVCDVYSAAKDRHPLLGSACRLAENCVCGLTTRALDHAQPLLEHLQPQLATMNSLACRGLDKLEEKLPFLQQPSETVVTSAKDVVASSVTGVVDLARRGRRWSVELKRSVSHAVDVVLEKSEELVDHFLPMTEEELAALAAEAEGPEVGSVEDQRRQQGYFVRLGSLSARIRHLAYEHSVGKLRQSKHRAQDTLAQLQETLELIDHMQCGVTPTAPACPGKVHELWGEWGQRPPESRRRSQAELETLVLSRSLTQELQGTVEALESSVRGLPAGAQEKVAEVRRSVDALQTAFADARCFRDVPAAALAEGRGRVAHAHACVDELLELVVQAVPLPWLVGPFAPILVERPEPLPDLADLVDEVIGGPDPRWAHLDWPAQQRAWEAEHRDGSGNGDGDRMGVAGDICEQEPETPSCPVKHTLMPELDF
Chain of UniProt Q00G26 (Q8WTS1 whole entry, looked up): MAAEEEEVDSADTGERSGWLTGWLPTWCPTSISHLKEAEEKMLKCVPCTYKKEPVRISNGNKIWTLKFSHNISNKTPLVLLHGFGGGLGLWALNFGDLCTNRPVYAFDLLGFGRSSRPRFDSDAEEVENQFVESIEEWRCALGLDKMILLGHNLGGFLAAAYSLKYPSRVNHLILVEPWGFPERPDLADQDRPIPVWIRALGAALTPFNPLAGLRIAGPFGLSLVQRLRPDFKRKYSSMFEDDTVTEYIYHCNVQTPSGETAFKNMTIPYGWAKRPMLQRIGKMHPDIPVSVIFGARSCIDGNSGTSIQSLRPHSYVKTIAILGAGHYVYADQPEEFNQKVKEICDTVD

inhibition, inactive:
Cc1[nH]nc(-c2ccc(O)cc2O)c1Oc1ccccc1 1.88%
C[C@]12CCC(=O)C=C1[C@H](O)C[C@@H]1[C@@H]2[C@@H](O)C[C@@]2(C)[C@H]1CC[C@]2(O)C(=O)CO -2.81%
CN(Cc1c(C(=O)N(C)Cc2ccccc2)nc2ccccn12)CC1Cc2ccccc2O1 (stereo unspecified) 6.36%
N/C(Cc1ccc(Cl)cc1Cl)=N\OC(=O)c1ccc(Br)o1 4.39%
OCCC1CN(Cc2nc(-c3ccccc3)cs2)CCN1Cc1ccc(F)cc1 (stereo unspecified) -5.63%
c1ccc2c(c1)CCOC2CNCCCN1CCCCC1 (stereo unspecified) -16.3%
CCN1C(=O)C(CC(=O)Nc2ccc(OC)cc2)N(CCc2ccc(F)cc2)C1=S (stereo unspecified) -1.45%
Cc1ccc2c(c1)c1c3n2CCCNC3CCC1 (stereo unspecified) 0.07%
O=C(NCc1ccc(N2CCCC2=O)cc1)c1cccc(Cl)c1 -4.06%
COc1ccc(C2N3CC4(C)CN2CC(C)(C3)C4)cc1OC (stereo unspecified) 2.2%
COc1ccc2c(c1OC)C(=O)OC2C1c2c(cc3c(c2OC)OCO3)CCN1C (stereo unspecified) -9.84%
CCCN1C[C@H](CSC)C[C@@H]2c3cccc4[nH]cc(c34)C[C@H]21 1.67%
COc1ccc(CCNC(=O)c2ccc(Cl)cc2)cc1OC -3.15%
CCC(=O)Oc1ccc(/C(CC)=C(\CC)c2ccc(OC(=O)CC)cc2)cc1 4.75%
COc1ccc2[nH]cc(C(=O)CCl)c2c1 11.7%
CCN1C(=O)C(CC(=O)Nc2ccc(F)cc2)N(Cc2ccco2)C1=S (stereo unspecified) 22%
Nc1cccc(C(=O)O)c1 -4.68%
COc1cc(CNCc2ccc(OC)c(OC)c2OC)cc(OC)c1 -5.82%
Cn1c(SCC(=O)c2ccccc2)nnc1-c1ccncc1 -1.23%
CN(C)CCCN1c2ccccc2Sc2ccccc21 -13%
COc1ccc(N2C(=O)[C@@H]3[C@H](C2=O)[C@H]2c4ccccc4C=CN2[C@@H]3C(C)=O)cc1 3.22%
Cc1cc(C(C)(C)C)c(O)c(C)c1CC1=NCCN1 -1.18%
Nc1c(C(=O)c2ccccc2)oc2ccccc12 -1%
CC(=O)N(CCC(Cc1ccccc1)c1ccco1)Cc1ccco1 (stereo unspecified) 39.1%
C[C@]12CC[C@@H]3c4ccc(O)cc4CC[C@H]3[C@@H]1CC[C@@H]2OC(=O)CCC(=O)O 6.35%
CCO/C([O-])=N/c1c[n+](N2CCOCC2)no1 -7.79%
COc1ccc(CCNc2ncnc3c2[nH]c2cc(OC)c(OC)cc23)cc1OC 9.07%
O=C1C(=O)c2ccccc2C(O)=C1c1ccccc1F 2.39%
COCCOC(=O)c1c(C)oc2ccc(OCc3cc(C(=O)OC)oc3C)cc12 -8.93%
COc1cc(C(=O)NCCCCCC(=O)O)cc(OC)c1OC -0.03%
COc1cc(OC)c(C2C(C#N)=C(N)OC3=C2C(=O)CC(C)(C)C3)cc1OC (stereo unspecified) 1.89%
Cc1[nH]c2ccccc2c1/C=C/c1nc2ccccc2c(=O)n1CCO 8.95%
CC1=C(/C=C/C(C)=C/C=C/C(C)=C/C(=O)O)C(C)(C)CCC1 13.8%
O=C(Nc1ccccc1)c1ccccc1CCc1ccccc1 -5.47%
Cc1ccc(CN2CCN(CCCc3ccccc3)CC2CCO)cc1 (stereo unspecified) -2.89%
CCN(Cc1cnn(C)c1)Cc1nc(C(c2ccccc2)c2ccccc2)no1 1.77%
CCCCCC#CCC#CCC#CCC#CCCCC(=O)O 38.3%
Cc1cc(=O)oc2cc(OC(C)C(=O)NCC3CCCO3)ccc12 (stereo unspecified) 2.43%
O=C(/C=C/c1ccco1)N1CCN(c2ccccc2)CC1 2.96%
O=C(O)/C=C/c1ccc(O)c(O)c1 -1.05%
O=C(Nc1ccc(Cl)cn1)Nc1ccccc1Cl -9.93%
C[N+](C)(C)CCCCCCCCCC[N+](C)(C)C -1.24%
COc1ccc(C(=O)Oc2ccc3c(C)cc(=O)oc3c2C(C)=O)cc1 2.94%
NS(=O)(=O)c1ccc(CNC(=O)c2cc(-c3ccccc3)nc3ccccc23)cc1 8.72%
O=C(O)C1Sc2[nH]c(=O)sc2C2c3ccc(O)cc3OC(=O)C12 (stereo unspecified) 3.48%
Fc1ccc(NC(=S)Nc2ccccc2Cl)cc1 2.3%
CC(=O)OC[C@H]1O[C@@H](n2ncc(=O)[nH]c2=O)[C@H](OC(C)=O)[C@@H]1OC(C)=O 3.32%
CN1C(=O)C(O)(CC(=O)c2ccccc2O)c2cc(Br)ccc21 (stereo unspecified) 0.19%
COc1ccc(C2NC(=O)c3ccccc3N2)cc1OC (stereo unspecified) -4.79%
COc1cc2c(cc1OC)C(=S)NC(C)(C)C2 11.8%
CN(C)CCN(Cc1ccccc1)c1ccccn1 -6.09%
CC1(C)C(=O)OC(c2cccs2)C2(CCCCC2)C1=O (stereo unspecified) 0.74%
CC(NC(=O)c1ccc(N2CCNCC2)c([N+](=O)[O-])c1)C12CC3CC(CC(C3)C1)C2 (stereo unspecified) -7.51%
Cn1c(=O)oc2cc(S(=O)(=O)N3CCc4ccccc4C3)ccc21 -0.05%
CC(NC(=O)OCc1ccccc1)C(=O)N1CC(O)CC1C(=O)O (stereo unspecified) -6.28%
O=C(/C=C/c1ccco1)NCc1ccc2c(c1)OCO2 14.1%
CC1=CC(C)(C)N2C(=O)C3(NCCc4c3[nH]c3ccccc43)c3cc(C)cc1c32 (stereo unspecified) -1.07%
COc1ccc(CC(=O)N2CC3(C)CC2CC(C)(C)C3)cc1OC (stereo unspecified) -11.3%
O=c1cnn([C@@H]2O[C@H](CO)[C@@H](O)[C@H]2O)c(=O)[nH]1 -4.2%
C=CCN1C(=O)c2oc3ccccc3c(=O)c2C1c1ccc(O)c(OC)c1 (stereo unspecified) 5.16%
COc1cccc2c(=O)c3ccccc3oc12 -15.8%
CN1CCc2cccc3c2[C@@H]1Cc1ccc(O)c(O)c1-3 27.2%
CN(C)CCOC(c1ccccc1)c1ccccc1 -7.17%
O=C(NCc1ccco1)/C(=C\C=C\c1ccccc1)NC(=O)c1ccccc1Br 17.3%
COc1ccc(S(N)(=O)=O)cc1C(N)=O 0.13%
CC(=O)N1CCN(c2ccc(OC[C@H]3CO[C@](Cn4ccnc4)(c4ccc(Cl)cc4Cl)O3)cc2)CC1 16.2%
CO[C@@H]1O[C@@H]2COC(c3ccccc3)O[C@@H]2[C@@H](OC)[C@@H]1O (stereo partly specified) 0.93%
CC(=O)[C@H]1CC[C@H]2[C@@H]3CCC4=CC(=O)CC[C@]4(C)[C@H]3CC[C@]12C -6.5%
Cc1ccc2[nH]c3c(=O)n(CCc4cnc[nH]4)cnc3c2c1 5.31%
COC(=O)C1=CN(Cc2cccs2)C=C(C(=O)OC)C1c1cccc(Cl)c1 11.4%
CC(C)NC[C@@H](O)c1ccc(O)c(O)c1 -7.49%
C[C@]12CC[C@@H]3c4ccc(O)cc4CC[C@H]3[C@@H]1CC[C@@H]2O -0.69%
COc1cccc(OC)c1C(=O)Nc1nc2ccc([N+](=O)[O-])cc2s1 -1.63%
CCC[C@@H]1C[C@@H](C(=O)N[C@H]([C@@H](C)O)[C@H]2O[C@H](SC)[C@H](O)[C@@H](O)C2O)N(C)C1 (stereo partly specified) -8.98%
CCCN(CCC)S(=O)(=O)c1ccc(C(=O)O)cc1 2.31%
COc1ccc(C2NC(C(=O)O)Cc3c2[nH]c2ccccc32)cc1CN1CCN(c2ccc(F)cc2)CC1 (stereo unspecified) 5.31%
CSCCC1NC2(C(=O)Nc3ccc(Cl)cc32)[C@@H]2C(=O)N(C3CCCC3)C(=O)[C@H]12 (stereo partly specified) -0.95%
CN1C2CCC1CC(OC(c1ccccc1)c1ccccc1)C2 (stereo unspecified) -1.59%
C[C@H](NC(=O)OC(C)(C)C)C(=O)NCC1CCC(C(=O)O)CC1 (stereo partly specified) -9.95%
COc1cccc(N2CC(O)=C(c3nc4ccccc4c(=O)[nH]3)C2=N)c1 13.7%
NC(N)=NC(=O)Cc1c(Cl)cccc1Cl -2.36%
CC/C(=C(\c1ccc(O)cc1)c1ccc(OCCN(C)C)cc1)c1ccccc1 -3.93%
NCCc1cnc[nH]1 -1.98% and -10.4%
COc1ccc(OC)c(S(=O)(=O)N2CCCc3ccccc32)c1 -3.37%
O=C(c1ccccc1)N1CCN(C(=O)c2ccccc2)CC1 -4.51%
NCCCC(=O)O 1.05%
NS(=O)(=O)c1cc2c(cc1Cl)NC(C(Cl)Cl)NS2(=O)=O (stereo unspecified) 3.18%
c1ccc(Nc2ccccn2)nc1 -4.92%
CC(C)CCn1c(N2CCc3ccccc3C2)nc2c1c(=O)[nH]c(=O)n2C 7.1%
CC(C)[N+](C)(CCOC(=O)C1c2ccccc2Oc2ccccc21)C(C)C 4.51%
c1cc2c(cc1C1CCCCC1)c1c3n2CCN=C3CCC1 1.07%
Cc1ccc2c(c1C)NC(C(=O)O)C1CC=CC21 (stereo unspecified) 6.49%
COc1cccc2c1C(=O)O/C2=C/c1ccc2c(c1)OCO2 10%
CC(C)CC(=O)Nc1ccc2oc(-c3ccncc3)nc2c1 -8.82%
CCN(Cc1ccncc1)Cc1nc(Cc2ccccc2Cl)no1 -1.62%
CCCC(=O)O[C@]1(C(=O)CCl)[C@@H](C)C[C@H]2[C@@H]3CCC4=CC(=O)C=C[C@]4(C)[C@@]3(F)C(=O)C[C@@]21C -2.79%
